From PMC12820563
The list shows a part of the results. The list includes weakly bound sequences.

biological target: T1, MBP-FoxP3dN (UniProt Q99JB6); assay: PD-seq (MBP pull-down with sequencing); conditions: 20 mM Tris-HCl pH 7.5, 100 mM NaCl, 1.5 mM MgCl2, 0.4 uM protein, 0.1 uM dsDNA library, 30 min, room temperature, amylose pull-down; high values mean tight binding; double strand, one strand shown
T1 sequence: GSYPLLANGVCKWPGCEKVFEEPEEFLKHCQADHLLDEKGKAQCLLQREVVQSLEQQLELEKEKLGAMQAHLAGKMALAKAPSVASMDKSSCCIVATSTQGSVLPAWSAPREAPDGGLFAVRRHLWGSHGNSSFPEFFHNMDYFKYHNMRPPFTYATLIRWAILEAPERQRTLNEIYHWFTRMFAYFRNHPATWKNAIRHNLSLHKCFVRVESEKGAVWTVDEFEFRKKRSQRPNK

| Sequence | binding signal (RPM ratio (pull-down/input)) |
| --- | --- |
| GATGATTGTTCTCCCAGCTGATGAATTTCCAGTCTCGAGTAAACAAATTTTCCTAATCTTTCTGTTCAAGCGCCATCTAC | 0.251 |
| GATGATTGTTCTCCCAGCTGATGAATTACGGGCGTCGAGTAAACAAATTTTCCTAATCTTTCTGTTCAAGCGCCATCTAC | 0.56 |
| GATGATTGTTCTCCCAGCTGATGAATTATGGGATTCGAGTAAACAAATTTTCCTAATCTTTCTGTTCAAGCGCCATCTAC | 0.447 |
| GATGATTGTTCTCCCAGCTGATGAATTCTGGACGTCGAGTAAACAAATTTTCCTAATCTTTCTGTTCAAGCGCCATCTAC | 0.242 |
| GATGATTGTTCTCCCAGCTGATGAATTGTCGTAGTCGAGTAAACAAATTTTCCTAATCTTTCTGTTCAAGCGCCATCTAC | 0.56 |
| GATGATTGTTCTCCCAGCTGATGAATTAAAGGGGTCGAGTAAACAAATTTTCCTAATCTTTCTGTTCAAGCGCCATCTAC | 0.279 |
| GATGATTGTTCTCCCAGCTGATGAATTTGCCACTTCGAGTAAACAAATTTTCCTAATCTTTCTGTTCAAGCGCCATCTAC | 2.63 |
| GATGATTGTTCTCCCAGCTGATGAATTTTATGATTCGAGTAAACAAATTTTCCTAATCTTTCTGTTCAAGCGCCATCTAC | 3.35 |
| GATGATTGTTCTCCCAGCTGATGAATTGAGGCTCTCGAGTAAACAAATTTTCCTAATCTTTCTGTTCAAGCGCCATCTAC | 0.908 |
| GATGATTGTTCTCCCAGCTGATGAATTTCCCAGCTCGAGTAAACAAATTTTCCTAATCTTTCTGTTCAAGCGCCATCTAC | 0.241 |
| GATGATTGTTCTCCCAGCTGATGAATTAAGATGTTCGAGTAAACAAATTTTCCTAATCTTTCTGTTCAAGCGCCATCTAC | 0.986 |
| GATGATTGTTCTCCCAGCTGATGAATTCAGTTACTCGAGTAAACAAATTTTCCTAATCTTTCTGTTCAAGCGCCATCTAC | 1.55 |
| GATGATTGTTCTCCCAGCTGATGAATTCTGATTATCGAGTAAACAAATTTTCCTAATCTTTCTGTTCAAGCGCCATCTAC | 3.08 |
| GATGATTGTTCTCCCAGCTGATGAATTACCCCTCTCGAGTAAACAAATTTTCCTAATCTTTCTGTTCAAGCGCCATCTAC | 0.33 |
| GATGATTGTTCTCCCAGCTGATGAATTTTGACCATCGAGTAAACAAATTTTCCTAATCTTTCTGTTCAAGCGCCATCTAC | 0.551 |
| GATGATTGTTCTCCCAGCTGATGAATTATAGCATTCGAGTAAACAAATTTTCCTAATCTTTCTGTTCAAGCGCCATCTAC | 5.46 |
| GATGATTGTTCTCCCAGCTGATGAATTCTGGTGTTCGAGTAAACAAATTTTCCTAATCTTTCTGTTCAAGCGCCATCTAC | 1.18 |
| GATGATTGTTCTCCCAGCTGATGAATTTAATCGATCGAGTAAACAAATTTTCCTAATCTTTCTGTTCAAGCGCCATCTAC | 0.286 |
| GATGATTGTTCTCCCAGCTGATGAATTCGTTGTTTCGAGTAAACAAATTTTCCTAATCTTTCTGTTCAAGCGCCATCTAC | 5.15 |
| GATGATTGTTCTCCCAGCTGATGAATTCTCTCTATCGAGTAAACAAATTTTCCTAATCTTTCTGTTCAAGCGCCATCTAC | 0.292 |
| GATGATTGTTCTCCCAGCTGATGAATTATACCGTTCGAGTAAACAAATTTTCCTAATCTTTCTGTTCAAGCGCCATCTAC | 0.467 |

| Sequence | binding signal (RPM ratio (pull-down/input)) |
| --- | --- |
| GATGATTGTTCTCCCAGCTGATGAATTGACGATCTCGAGTAAACAAATTTTCCTAATCTTTCTGTTCAAGCGCCATCTAC | 0.395 |
| GATGATTGTTCTCCCAGCTGATGAATTTCACAAATCGAGTAAACAAATTTTCCTAATCTTTCTGTTCAAGCGCCATCTAC | 0.237 |
| GATGATTGTTCTCCCAGCTGATGAATTCTCTGCCTCGAGTAAACAAATTTTCCTAATCTTTCTGTTCAAGCGCCATCTAC | 0.284 |
| GATGATTGTTCTCCCAGCTGATGAATTCCTAGTTTCGAGTAAACAAATTTTCCTAATCTTTCTGTTCAAGCGCCATCTAC | 0.31 |
| GATGATTGTTCTCCCAGCTGATGAATTTAGGATTTCGAGTAAACAAATTTTCCTAATCTTTCTGTTCAAGCGCCATCTAC | 0.408 |
| GATGATTGTTCTCCCAGCTGATGAATTGCCACCTTCGAGTAAACAAATTTTCCTAATCTTTCTGTTCAAGCGCCATCTAC | 1.08 |
| GATGATTGTTCTCCCAGCTGATGAATTATCGTGCTCGAGTAAACAAATTTTCCTAATCTTTCTGTTCAAGCGCCATCTAC | 0.523 |
| GATGATTGTTCTCCCAGCTGATGAATTTACACGATCGAGTAAACAAATTTTCCTAATCTTTCTGTTCAAGCGCCATCTAC | 0.459 |
| GATGATTGTTCTCCCAGCTGATGAATTCCTACAGTCGAGTAAACAAATTTTCCTAATCTTTCTGTTCAAGCGCCATCTAC | 0.239 |
| GATGATTGTTCTCCCAGCTGATGAATTGCATTCCTCGAGTAAACAAATTTTCCTAATCTTTCTGTTCAAGCGCCATCTAC | 3.39 |
| GATGATTGTTCTCCCAGCTGATGAATTAAACTTGTCGAGTAAACAAATTTTCCTAATCTTTCTGTTCAAGCGCCATCTAC | 0.39 |
| GATGATTGTTCTCCCAGCTGATGAATTACGATGATCGAGTAAACAAATTTTCCTAATCTTTCTGTTCAAGCGCCATCTAC | 0.68 |
| GATGATTGTTCTCCCAGCTGATGAATTGATCAACTCGAGTAAACAAATTTTCCTAATCTTTCTGTTCAAGCGCCATCTAC | 0.484 |
| GATGATTGTTCTCCCAGCTGATGAATTTGTTCACTCGAGTAAACAAATTTTCCTAATCTTTCTGTTCAAGCGCCATCTAC | 2.56 |
| GATGATTGTTCTCCCAGCTGATGAATTTTTGGAGTCGAGTAAACAAATTTTCCTAATCTTTCTGTTCAAGCGCCATCTAC | 0.23 |
| GATGATTGTTCTCCCAGCTGATGAATTTACAGGGTCGAGTAAACAAATTTTCCTAATCTTTCTGTTCAAGCGCCATCTAC | 0.375 |
| GATGATTGTTCTCCCAGCTGATGAATTAGAGTGTTCGAGTAAACAAATTTTCCTAATCTTTCTGTTCAAGCGCCATCTAC | 0.85 |
| GATGATTGTTCTCCCAGCTGATGAATTTGGTCACTCGAGTAAACAAATTTTCCTAATCTTTCTGTTCAAGCGCCATCTAC | 0.69 |
| GATGATTGTTCTCCCAGCTGATGAATTAATCAAATCGAGTAAACAAATTTTCCTAATCTTTCTGTTCAAGCGCCATCTAC | 0.25 |
| GATGATTGTTCTCCCAGCTGATGAATTGCCGTTTTCGAGTAAACAAATTTTCCTAATCTTTCTGTTCAAGCGCCATCTAC | 0.855 |
| GATGATTGTTCTCCCAGCTGATGAATTTAGTTTCTCGAGTAAACAAATTTTCCTAATCTTTCTGTTCAAGCGCCATCTAC | 2.13 |

| Sequence | binding signal (RPM ratio (pull-down/input)) |
| --- | --- |
| GATGATTGTTCTCCCAGCTGATGAATTGGCGTAGTCGAGTAAACAAATTTTCCTAATCTTTCTGTTCAAGCGCCATCTAC | 0.524 |
| GATGATTGTTCTCCCAGCTGATGAATTGACCGTTTCGAGTAAACAAATTTTCCTAATCTTTCTGTTCAAGCGCCATCTAC | 0.403 |
| GATGATTGTTCTCCCAGCTGATGAATTTCCTATGTCGAGTAAACAAATTTTCCTAATCTTTCTGTTCAAGCGCCATCTAC | 0.275 |
| GATGATTGTTCTCCCAGCTGATGAATTATATTGATCGAGTAAACAAATTTTCCTAATCTTTCTGTTCAAGCGCCATCTAC | 4.3 |
| GATGATTGTTCTCCCAGCTGATGAATTCCTTGTATCGAGTAAACAAATTTTCCTAATCTTTCTGTTCAAGCGCCATCTAC | 0.47 |
| GATGATTGTTCTCCCAGCTGATGAATTGTGCGGTTCGAGTAAACAAATTTTCCTAATCTTTCTGTTCAAGCGCCATCTAC | 1.48 |
| GATGATTGTTCTCCCAGCTGATGAATTTCTCTCATCGAGTAAACAAATTTTCCTAATCTTTCTGTTCAAGCGCCATCTAC | 0.291 |
| GATGATTGTTCTCCCAGCTGATGAATTCCCAAACTCGAGTAAACAAATTTTCCTAATCTTTCTGTTCAAGCGCCATCTAC | 0.252 |
| GATGATTGTTCTCCCAGCTGATGAATTAGAACACTCGAGTAAACAAATTTTCCTAATCTTTCTGTTCAAGCGCCATCTAC | 0.469 |
| GATGATTGTTCTCCCAGCTGATGAATTAGTGAGGTCGAGTAAACAAATTTTCCTAATCTTTCTGTTCAAGCGCCATCTAC | 0.587 |
| GATGATTGTTCTCCCAGCTGATGAATTGCATCGATCGAGTAAACAAATTTTCCTAATCTTTCTGTTCAAGCGCCATCTAC | 1.57 |
| GATGATTGTTCTCCCAGCTGATGAATTCCCACATTCGAGTAAACAAATTTTCCTAATCTTTCTGTTCAAGCGCCATCTAC | 0.334 |
| GATGATTGTTCTCCCAGCTGATGAATTGCATAGTTCGAGTAAACAAATTTTCCTAATCTTTCTGTTCAAGCGCCATCTAC | 1.11 |
| GATGATTGTTCTCCCAGCTGATGAATTCAAGCAGTCGAGTAAACAAATTTTCCTAATCTTTCTGTTCAAGCGCCATCTAC | 0.501 |
| GATGATTGTTCTCCCAGCTGATGAATTGCTGCCATCGAGTAAACAAATTTTCCTAATCTTTCTGTTCAAGCGCCATCTAC | 2.29 |
| GATGATTGTTCTCCCAGCTGATGAATTGACTGACTCGAGTAAACAAATTTTCCTAATCTTTCTGTTCAAGCGCCATCTAC | 0.319 |
| GATGATTGTTCTCCCAGCTGATGAATTCAAATACTCGAGTAAACAAATTTTCCTAATCTTTCTGTTCAAGCGCCATCTAC | 0.528 |
| GATGATTGTTCTCCCAGCTGATGAATTAGAGGTTTCGAGTAAACAAATTTTCCTAATCTTTCTGTTCAAGCGCCATCTAC | 0.552 |
| GATGATTGTTCTCCCAGCTGATGAATTCAGAGGTTCGAGTAAACAAATTTTCCTAATCTTTCTGTTCAAGCGCCATCTAC | 0.344 |
| GATGATTGTTCTCCCAGCTGATGAATTACAATGATCGAGTAAACAAATTTTCCTAATCTTTCTGTTCAAGCGCCATCTAC | 0.578 |
| GATGATTGTTCTCCCAGCTGATGAATTCTTAATATCGAGTAAACAAATTTTCCTAATCTTTCTGTTCAAGCGCCATCTAC | 0.369 |
